Experimental findings from article PMC12040169 (PLOS Biology, 2025) are described below.

Structures are written as SMILES. This is one part of the list.

The assay relates to T1, C. trachomatis L2/434/Bu expressing GFP (CTL2-GFP).
T1 construct: L2/434/Bu GFP intracellular growth in HeLa cells
Set-up: species or system HeLa; C. trachomatis total inclusion area by high-content imaging, normalised to DMSO. The note with it: total inclusion area; 28.5 h, 10 µM; inhibitor. The method in brief: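 High-content imaging followed the bulk GFP/resorufin measurement: fixed, Hoechst-stained cells were scored for GFP inclusions and host nuclei per well. Total inclusion area and count served as growth proxies, nuclei number as the viability proxy. MIC calculation matched the bulk assay.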
Take `COc1ccc(CCC(=O)Nc2cc(N3CCNCC3)ncn2)cc1` [CBK004231T]: the “% of control remaining” value is 88.8826.

For the compound `Cc1cnc(CNC(=O)N2CCN(c3ccccc3)CC2)cn1` [CBK155174], the “% of control remaining” value is on record as 50.326.

For the compound `CCC(C)NC(=O)c1ccc2nccnc2c1` (stereo not drawn) [CBK268921], the “% of control remaining” value was 89.9343.

Turning to `Cn1nc(C(Cc2ccccc2)NC(=O)c2ccco2)c2cccnc21` (stereo not drawn) [CBK285223], the “% of control remaining” value is listed as 127.02.

As to `CCC(Oc1ccccc1)C(=O)Nc1sc2c(c1C#N)CCCC2` (stereo not drawn) [CBK262091], the “% of control remaining” value was 82.2236.

Turning to `Fc1ccc2[nH]c3c(c2c1)CCOC31CCN(C/C=C\c2ccccc2)CC1` [CBK040141], the “% of control remaining” value is reported as 8.541.

For `Cc1csc(Nc2cccc(C3CCCN3C(=O)CCOc3ccccc3C)n2)n1` (stereo not drawn) [CBK285977], the “% of control remaining” value is on record as 87.0822.

`CCN1CC2(CCN(CCCn3c(=O)[nH]c4ccccc43)CC2)c2ccccc21` [CBK131483]: the “% of control remaining” value came to 95.7666.

Regarding `CCNc1nc(-c2ccc3c(c2)CCCN3S(C)(=O)=O)cs1` [CBK305861], the “% of control remaining” value was 65.2604.

For the compound `CCN(CC)CCn1c(=N)n(CC(=O)c2ccc(Cl)c(Cl)c2)c2ccccc21` [CBK263455B], the “% of control remaining” value amounted to 114.457.

For the compound `CCOc1ccc(-c2cncc(NCCc3c[nH]c4ccccc34)n2)cc1` [CBK065876], the “% of control remaining” value came to 112.528.

Regarding `COc1ccc(Nc2ccc(-c3ccc(C(=O)O)cc3)cn2)cc1` [CBK037654], the “% of control remaining” value stood at 76.2556.

Turning to `O=C(Cc1ccccc1)N/N=C/C1CC2CC1CC2C(F)(F)F` (stereo not drawn) [CBK021488], the “% of control remaining” value came to 98.455.

As to `Cc1c[nH]c(CN(C)c2cc([C@H]3C[C@@H](N)C3)nc(N3CCCC3)n2)n1` [CBK306798], the “% of control remaining” value is recorded as 62.492.

For the compound `CCOC(=O)C1CCCN(C(=O)Nc2cc(C)on2)C1` (stereo not drawn) [CBK305661], the “% of control remaining” value is listed as 62.2815.

Turning to `CN(C)c1ccc(NC(=O)CC2S/C(=N/c3ccccc3)N(c3ccccc3)C2=O)cc1` (stereo not drawn) [CBK265644], the “% of control remaining” value is 91.8935.

For `Cc1cccc(C)c1NC(=O)Cn1c(SCC(N)=O)nc2ccccc21` [CBK266684], the “% of control remaining” value is given as 88.749.

As to `O=C1CCC(=O)N1CCOc1nccnc1OC1CCN(Cc2ccc(Cl)c(Cl)c2)CC1` [CBK084335], the “% of control remaining” value amounted to 83.2762.

On to `O=C(c1ccccn1)N1CCCC(c2cc3ccccc3cn2)C1` (stereo not drawn) [CBK282832], for which the “% of control remaining” value was determined as 123.663.

In the case of `c1cnn(CCCNc2nc3nonc3nc2N2CCCCCC2)c1` [CBK307318], the “% of control remaining” value was 60.2873.

Regarding `Cc1nnnn1-c1cc(NC(=O)NCC2CCCO2)ccc1F` (stereo not drawn) [CBK305528], the “% of control remaining” value is listed as 73.5053.

As for `CN1CCCN(c2cnn(Cc3ccc(Cl)s3)c(=O)c2)CC1` [CBK307123], the “% of control remaining” value came out at 57.3258.

In the case of `CCCNc1nccnc1-c1cccc(CO)c1` [CBK088897], the “% of control remaining” value is 119.73.

Take `Cc1ccc(CN(Cc2cncn2C)C2CC(C)(C)NC(C)(C)C2)o1` [CBK283192]: the “% of control remaining” value was 87.2947.

For the compound `Cc1ccc2c(c1)C(=O)NCC1(CCN(Cc3ccccc3)CC1)O2` [CBK285048], the “% of control remaining” value is reported as 108.874.

`OCCNc1nc(O)cc(C(F)(F)F)n1` [CBK001804]: the “% of control remaining” value came out at 76.8385.

Take `Nc1ccc(CCNC(=O)c2cnc(-c3ccc(Cl)cc3)c(-c3ccco3)c2)cc1` [CBK036686]: the “% of control remaining” value is recorded as 73.0094.

In the case of `O=C(O)c1ccc(/C=N/Nc2cccc3cccnc23)cc1` [CBK262372], the “% of control remaining” value is 107.946.

For `Nc1ncc(-c2occc2C=O)nc1-c1ccc(F)c(Cl)c1` [CBK064005], the “% of control remaining” value is listed as 84.7531.

As to `COc1ccc2c(c1Br)C=C(n1ccnc1)CC2` [CBK017808], the “% of control remaining” value worked out at 52.1898.

For the compound `COCC(=O)N1CCc2sccc2C1c1ccc(NCc2ccc(F)cc2)cc1` (stereo not drawn) [CBK286445], the “% of control remaining” value is listed as 108.839.

Consider `CSc1ccc(CNCCc2c[nH]c3ccccc23)cc1` [CBK262126], for which the “% of control remaining” value was 98.0352.

On to `CN1CC(C(=O)N2C3CCC2CC(c2ccc(F)cc2)C3)CC1=O` (stereo not drawn) [CBK283769], for which the “% of control remaining” value was 101.412.

Regarding `C[C@H](Nc1nc(-c2cccc(C(N)=O)c2)cnc1N)c1ccccc1` [CBK063715], the “% of control remaining” value worked out at 118.541.

Turning to `Cc1ccc(S(=O)(=O)N(CC(=O)Nc2cccnc2)c2cccc(Br)c2)cc1` [CBK264094], the “% of control remaining” value is 87.5843.

For the compound `CC(C)(C)OC(=O)N1CCN(CCCOC2(C)SC(NC3CC4CCC3C4)=NC2=O)CC1` (stereo not drawn) [CBK115612], the “% of control remaining” value came out at 99.0804.

Regarding `COc1ccc2c3c([nH]c2c1)C(C)N(CCC(=O)NN)CC3` (stereo not drawn) [CBK261726], the “% of control remaining” value came to 99.3537.

On to `CN1CCN(c2nc3c(N)ncn(CC(O)CO)c-3n2)CC1` (stereo not drawn) [CBK262571], for which the “% of control remaining” value is 97.8904.

Turning to `COC(=O)c1cc(Cl)c(NC(=S)NC(=O)C(C)(C)C)cc1OC` [CBK020937], the “% of control remaining” value is 101.727.

On to `CC(C)(CN)CN(Cc1c[nH]c(-c2ccccc2)n1)C(=O)Nc1ccc(C(C)(C)C)cc1` [CBK002462C], for which the “% of control remaining” value amounted to 30.223.

Take `CC(C)NC(=O)Nc1ccccc1-c1ncn(C)n1` [CBK020922]: the “% of control remaining” value was found to be 80.9648.

Consider `CCC(CC)c1cc([C@H]2CN3CC[C@H]2C[C@@H]3CO)nc(-c2ccncc2)n1` [CBK289118], for which the “% of control remaining” value was found to be 101.155.

For `O=C1CN(Cc2ccc3ccccc3n2)CCN1C1CCCC1` [CBK281961], the “% of control remaining” value is recorded as 87.4566.

Turning to `CCOC(=O)N1CCC(NS(=O)(=O)c2ccc(C)c([N+](=O)[O-])c2)CC1` [CBK045468], the “% of control remaining” value is 77.4994.

With `O=C(NCc1cccc(C(F)(F)F)c1)c1cnoc1-c1ccc(Br)cc1` [CBK153718], the “% of control remaining” value is recorded as 119.082.

`O=C(NCc1ccc2c(c1)CCN2C(=O)c1ccncc1)c1cccnc1` [CBK288585]: the “% of control remaining” value was found to be 89.8978.

Take `Cc1ccc2c(c1)OC(C)(C)CC2NC(=O)C1CCN(C)CC1` (stereo not drawn) [CBK307626]: the “% of control remaining” value was 93.5899.

As to `O=C(CC(NC1CCCCC1)C(=O)O)Nc1cccc(Cl)c1` (stereo not drawn) [CBK266916], the “% of control remaining” value is listed as 95.4145.

As to `O=C(CNS(=O)(=O)Cc1ccccc1[N+](=O)[O-])N1CCOCC1` [CBK042220], the “% of control remaining” value came out at 90.3816.

Consider `C=CCN(c1ccccc1)S(=O)(=O)c1ccc(C(C)(C)CC)cc1` [CBK200036], for which the “% of control remaining” value was 93.1257.

Turning to `COc1ccc(-c2nnc(SCC(=O)c3ccc(C)o3)o2)cc1` [CBK268334], the “% of control remaining” value is recorded as 98.7399.

With `C=CCn1c2ccccc2c2nnc(SCC(=O)Nc3c(C)n(C)n(-c4ccccc4)c3=O)nc21` [CBK263892], the “% of control remaining” value is on record as 106.05.

For `Cc1ccc2c(c1)cc(C)c1nn(CC(=O)NC(C)(C)C)c(=O)n12` [CBK283875], the “% of control remaining” value is 95.1766.

On to `COc1ccc(C(=O)Nc2nnc(C3=COCCO3)o2)cc1` [CBK287409], for which the “% of control remaining” value is recorded as 104.278.

As for `CC1CCc2nc(NC(=O)Cn3cc(C(=O)Nc4ccc(F)cc4)ccc3=O)sc2C1` (stereo not drawn) [CBK286053], the “% of control remaining” value was determined as 107.286.

For the compound `CC(=O)N1CCN(C[C@@H]2C=C(C)[C@H](Cc3nnc(C(C)(C)C)o3)C[C@H]2C(C)C)CC1` [CBK289221], the “% of control remaining” value worked out at 102.275.

With `Cc1cc(NC(=O)CN2CCC(Cc3ccccc3)CC2)nc2c1c(=O)oc1ccccc12` [CBK291261], the “% of control remaining” value is recorded as 97.4774.

Regarding `Cc1cc(C)cc(CNC(=O)NCCc2cccs2)c1` [CBK043459], the “% of control remaining” value is listed as 125.038.

For the compound `O=C(O)CCN1C(=O)/C(=C/c2ccc(C(=O)O)cc2)SC1=S` [CBK262785], the “% of control remaining” value came out at 111.02.

With `O=C(c1ccccc1)c1cc(Cl)ccc1-n1ccnc1Br` [CBK016011], the “% of control remaining” value stood at 79.5745.

Regarding `COCCN(CC1CC1)C(=O)c1cc(NC(C)=O)ccc1Cl` [CBK304352], the “% of control remaining” value is 105.109.

Turning to `c1cncc(Nc2cccc(-c3cnc4ccccc4c3)n2)c1` [CBK037638], the “% of control remaining” value was found to be 89.1849.

Take `CN1CCN(CC(=O)Nc2cc(C(F)(F)F)ccc2Cl)C(C)(C)C1` [CBK306363]: the “% of control remaining” value came to 86.3096.

`CC1(C)CC(N2CNC(=N)N(C#N)C2)CC(C)(C)N1` [CBK262008]: the “% of control remaining” value turned out to be 93.6449.

For the compound `Cc1ccc(N(CC(=O)Nc2cc(Cl)ccc2C)S(C)(=O)=O)cc1` [CBK264030], the “% of control remaining” value came to 93.0481.

Regarding `CC(C)(c1ccccc1)c1ccc(OCc2ccc(S(=O)(=O)N3CCOCC3)cc2)cc1` [CBK267407], the “% of control remaining” value is listed as 99.3544.

On to `c1cc(-c2ccc(OC3CCNCC3)cc2)c2cccnc2c1` [CBK103528T], for which the “% of control remaining” value was 72.7806.

As for `CCN(CC)CCN1CCN(c2cc(-c3ccc(SC)cc3)ncn2)CC1` [CBK091203], the “% of control remaining” value was 118.257.

Regarding `CC(C)(O)C#Cc1ccc(C(=O)NC(Cc2c[nH]c3ccccc23)C(=O)O)cc1` (stereo not drawn) [CBK267703], the “% of control remaining” value is on record as 99.3748.

In the case of `O=C(c1cncnc1)N1CCCc2ccccc21` [CBK200259], the “% of control remaining” value worked out at 84.3117.

In the case of `O=C(Nc1nnc(-c2ccco2)o1)c1ccc2c(c1)CCCC2` [CBK287425], the “% of control remaining” value is 99.8671.

`CN(C)S(=O)(=O)N1CCC(C(=O)O)(c2ccccc2)CC1` [CBK286681]: the “% of control remaining” value came out at 68.7464.

Turning to `CCOC(=O)C1(Cc2cc(-c3ccc(F)cc3)no2)CCCNC1` (stereo not drawn) [CBK284579], the “% of control remaining” value came to 72.1822.

With `Cc1ccc(-c2nnc(N3CCN(S(=O)(=O)c4ccc(Cl)cc4)CC3)c3ccccc23)cc1` [CBK266759], the “% of control remaining” value was determined as 96.9996.

`CN(C)S(=O)(=O)c1ccc(Cl)c(C(=O)Nc2cccc(O)c2)c1` [CBK265723]: the “% of control remaining” value is listed as 98.5496.

Regarding `CN1CCN(C(c2ccc(O)cc2)c2nnnn2Cc2ccccc2)CC1` (stereo not drawn) [CBK084719], the “% of control remaining” value amounted to 102.658.

In the case of `Clc1ccc(COc2nccnc2OCC2CCCO2)cc1Cl` (stereo not drawn) [CBK161587], the “% of control remaining” value is given as 100.514.

Take `OCCOc1cccnc1OCC1CC1` [CBK001461]: the “% of control remaining” value is on record as 92.7125.

`O=C(/C=C\c1cccs1)NC(=S)Nc1ccc([N+](=O)[O-])cc1O` [CBK261231]: the “% of control remaining” value was 104.929.

Consider `COc1ccc(CO)cc1OCc1ccccc1` [CBK051334], for which the “% of control remaining” value stood at 127.82.

For `CCCn1c(SCC(=O)Nc2cc(C(C)(C)C)no2)n[nH]c1=O` [CBK295648], the “% of control remaining” value was 49.4662.
